# Experimental data taken from PubChem BioAssay AID1458 (National Center for Advancing Translational Sciences (NCATS), 2008).
# The campaign covered roughly 210,000 compounds. About 5,900 (2.8%) were called active. This list was built around the results that the source calls inconclusive (neither active nor inactive); the mix of calls is not that of the screen. The call rests on the fitted dose curve; in most records, active means well fitted activation curve with a large enough effect; inconclusive means small, poorly fitted or top-dose-only effect; inactive means no such curve, though single readings can be large or run the other way. Potencies beside an inconclusive call are fits to weak or partial responses and may not hold up.
# Assay: qHTS Assay for Enhancers of SMN2 Splice Variant Expression; further: nearly all actives have a fitted effect of over 55% in size; on activity change, positive = activation: % of control where 0% means no effect
# Settings: HEK293 SMN2-luciferase splicing reporter, luminescence, 30-36 h; activity change, positive = activation: at 46.1 µM (top of the series)
# Summary of the method: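 HEK293 cells carry an SMN2 […]–luciferase reporter in which exon 7 inclusion puts luciferase in frame. Cells were plated 10-12 h before compound addition, then incubated 30-36 h at 37C. ONE-Glo luminescence was read; sodium butyrate at 4.5 mM final served as control.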
# Potency means the concentration at half of the fitted maximal effect; tags describe the fitted curve by direction and shape.
Compound,Potency,"activity change, positive = activation"
COCCCn1cc(C(=O)c2cc(OC)ccc2OCC(=O)Nc2cc(C)on2)cc(C#N)c1=O,"inconclusive: 17.8 µM [activator, partial curve, poor fit]",–
COC(=O)CNS(=O)(=O)c1ccc(Cc2ccc(S(=O)(=O)NCC(=O)OC)cc2)cc1,"inconclusive: 3.98 µM [activator, full curve]",–
Cc1c2c(nc3ccccc13)CCC(C(C)(C)C)C2 (centres undefined),"inconclusive: 22.4 µM [activator, single point]",–
Cc1ccc(CN(Cc2ccco2)S(=O)(=O)c2ccc(S(=O)(=O)NCC3CCCO3)cc2)cc1 (centres undefined),"inconclusive: 4.47 µM [activator, partial curve]",–
Oc1oc(-c2ccccc2)nc1/C=N/c1nccs1,"inconclusive: 7.08 µM [activator, partial curve]",–
O=C1c2oc3ccc(Cl)cc3c(=O)c2C(c2cccnc2)N1Cc1ccco1 (centres undefined),–,inactive: 3.9%
CCOC(=O)N/C(N)=N/c1nc2ccccc2s1,active: 11.2 µM,–
O=C(CCC1CCCCC1)Nc1ccccc1O,"inconclusive: 35.5 µM [activator, single point]",–
Cn1cnnc1SCCC(=O)Nc1ccc(Cl)cc1,"inconclusive: 22.4 µM [activator, single point]",–
Cc1ccc(S(=O)(=O)N2CCC(C(=O)NCCc3ccccn3)CC2)cc1,"inconclusive: 3.98 µM [activator, single point]",–
COc1ccc(C2(c3ccc(OC)cc3)NC(=O)N(Cn3nnc4ccccc4c3=O)C2=O)cc1,"inconclusive: 3.98 µM [activator, single point]",–
Cc1sc2c(c1C)c(=O)n(-c1cccc(C(F)(F)F)c1)c(=O)n2Cc1ccccc1C#N,–,inactive: 22.3%
O=C(Nc1ccc2nc(-c3ccco3)c(-c3ccco3)nc2c1)N1CCN(c2ccccn2)CC1,"inconclusive: 5.62 µM [activator, partial curve, poor fit]",–
CCCC(=O)O[C@@H]1C[C@@H](C)N(C(=O)c2ccccc2)c2ccc(C)cc21,–,inactive: -13.2%
Cc1ccc(SCc2nc(-c3ccccn3)no2)cc1,"inconclusive: 35.5 µM [activator, partial curve, poor fit]",–
Cc1ccc(NC(NC(=O)c2ccccc2[N+](=O)[O-])C(Cl)(Cl)Cl)cc1 (centres undefined),–,inactive: -26.1%
CN(C)Cc1c(-c2ccc(Cl)cc2)nc2ccccn12,active: 12.6 µM,–
COc1cccc(C2C(C(N)=O)=C(C)Nc3nc(-c4ccccc4Cl)nn32)c1 (centres undefined),"inconclusive: 31.6 µM [activator, single point]",–
Cc1[nH]c2ccccc2c1/C=N/NC(=O)c1cc(-c2cccs2)[nH]n1,–,inactive: 9.25%
COc1ccc(-c2csc(Nc3ncccc3C)n2)cc1,active: 2.24 µM,–
COc1ccc(NC(=S)Nc2ccc3nsnc3c2)cc1,"inconclusive: 7.94 µM [activator, partial curve, poor fit]",–
CC1CCN(S(=O)(=O)c2ccc3c(c2)CCN3C(=O)CCC(=O)O)CC1,"inconclusive: 0.0089 µM [activator, full curve, poor fit]",–

Compound,Potency,"activity change, positive = activation"
COc1ccc(C(=O)Nc2ccc(SC(F)F)cc2)cc1,"inconclusive: 3.98 µM [activator, full curve]",–
Cc1cccc(N2CC(C(=O)Nc3ccc4c(c3)OCO4)CC2=O)c1C (centres undefined),"inconclusive: 5.01 µM [activator, full curve, poor fit]",–
CNS(=O)(=O)c1ccc(NC(=O)c2ccccn2)cc1,active: 20 µM,–
CCn1c(C(=O)NCc2cccc(Br)c2)cc2oc3ccccc3c21,"inconclusive: 3.98 µM [activator, single point]",–
C/C(=N\NC(=O)c1nc2ccccn2c1C)c1ccc2c(c1)OCO2,"inconclusive: 0.02 µM [activator, full curve, poor fit]",–
c1ccc(CSc2nnc(-c3cccs3)o2)cc1,"inconclusive: 7.94 µM [activator, partial curve]",–
Nc1ccc(Cl)cc1/C(=N/O)c1ccccc1,"inconclusive: 11.2 µM [activator, partial curve]",–
CCc1ccc(-c2nc3ccc(Br)cc3c(C(=O)O)c2C)s1,"inconclusive: 31.6 µM [activator, single point]",–
CCn1c(=O)cc(SCC(=O)Nc2ccc3c(c2)OCO3)c2ccccc21,–,inactive: 18.4%
CCOC(=O)c1cccc(NC(=O)CSc2nc(N)cc(N)n2)c1,"inconclusive: 5.62 µM [activator, single point]",–
O=C(c1cccc(F)c1)N1CCC2(CC1)CCN(C(c1ccccc1)c1ccccc1)CC2,–,inactive: -22.7%
CCSc1nc2c(c(=O)[nH]1)C(c1ccccn1)C1=C(CC(C)(C)CC1=O)N2 (centres undefined),"inconclusive: 0.0794 µM [activator, full curve, poor fit]",–
c1ccc2[nH]c(-c3ccnc4ccccc34)nc2c1,"inconclusive: 15.8 µM [activator, partial curve]",–
Cc1ccc(C2C(C#N)=C(N)Oc3c2c(=O)n(C)c(=O)n3C)cc1 (centres undefined),"inconclusive: 3.55 µM [activator, single point]",–
CCO/N=C(/C)c1c(O)cc(-c2ccccc2)n(-c2ccccc2)c1=O,"inconclusive: 0.199 µM [activator, full curve]",–
COc1cc2c(cc1OC)CC(=O)N(C)CC2,"inconclusive: 22.4 µM [activator, single point]",–
Nc1nncn1C(=O)CCCOc1ccc(Cl)cc1Cl,–,inactive: -1.59%
N#Cc1ccc(CN2CCCC3(CCN(C(=O)c4ccncc4)CC3)C2)cc1,–,inactive: -17.3%
CC(C)(C)C(=O)COC(=O)c1cccc(NC(=O)c2ccco2)c1,"inconclusive: 0.126 µM [activator, partial curve, poor fit]",–
COc1ccccc1-c1nc(-c2ccc(Br)o2)no1,"inconclusive: 5.62 µM [activator, single point]",–
COc1ccc2c(c1)CCc1c(C(=O)NCC(C)C)noc1-2,active: 4.47 µM,–
O=C(CC1N=C2c3ccccc3N=C(SCc3ccccc3Cl)N2C1=O)NCc1ccco1 (centres undefined),"inconclusive: 10 µM [activator, partial curve]",–
